Assay [1] has as its target T1, Aβ34 (Homo sapiens, UniProt P05067, G704A).
T1 construct: purchased PSL, Germany; host or cells: chemical synthesis
Briefly: Surface plasmon resonance, synthetic Aβ peptides binding to captured mab34. Conditions: SPR, Aβ34 peptide variants. As to the method: (§1) Using a BIACORE T200 system (GE Healthcare Bio-Sciences Aβ, Upsala, Sweden; v2.0 Control and v1.0 Evaluation software), SPR experiments were performed at 25° C. using filtered (0.2 μm) and degassed HBS-EP+ buffer (10 mM HEPES PH 7.4; 150 mM NaCl; 3 mM EDTA; 0.05% (v/v) Tween™-20). Using Biacore's Amine Coupling Kit, Mouse Antibody Capture Kit, and CM5 sensors, an anti-mouse Fc antibody (14 μg/mL in 10 mM sodium acetate pH 5.0) was immobilized to the flow cells (˜8000 RU each) as recommended by GE. To assess binding specificity, a variety of Aβ peptides (0-2 μM; 4-fold dilution series) were titrated over reference (anti-mouse Fc antibody only) and active (˜1000 RU mab34 captured to anti-mouse Fc antibody) surfaces in single-cycle kinetic mode (25 uL/min.×5 min. association+10 min. dissociation). Between each sample series, surfaces were regenerated at 50 uL/min. using two 30 sec pulses of Pierce Gentle Ag/Ab Elution Buffer pH 6.6 (Thermo Scientific #21027) as well as 10 mM glycine pH 1.7. To assess binding affinity, Aβ34 peptide titrations (0-1.6 µM; 3-fold dilution series) were performed in the similar manner using multi-cycle kinetic mode (25 uL/min.×10 min. association+20 min. dissociation). All of the double-referenced data presented are representative of duplicate injections acquired from at least three independent trials. […]

For assay [2], the target named is T2, Aβ34 (Homo sapiens, UniProt P05067).
T2 construct: purchased PSL, Germany; host or cells: chemical synthesis
The description is as above. As to the method:
as §1

In assay [3] the target is T2, Aβ34. Briefly: MSD electrochemiluminescence immunoassay based on mab34. Format: binding. Particulars: MSD assay, n=3. As to the method:
Using the ELISA Conversion Kit from Meso Scale Discovery (MSD, USA), an electrochemiluminescence-based assay was developed (neo-epitope specific Aβ34 and the sulfo-tagged 6E10 (binds to the N-terminus of human Aβ) or the sulfo-tagged 4G8 for murine samples (binds to the mid domain of Aβ)). […] After three washing steps with PBS-T for 1 min. at 22° C., 150 μL 2×MSD read buffer were added per well. All plates were read using a MSD QuickPlex SQ 120 Imager and data analyzed using MSD Workbench® software. […]
In the WORKBENCH® software, lower limit of detection LLOD was determined as the analyte concentration equivalent to the signal that is 2.5× standard deviation (SD) above the back-fit signal of the blank. Assay performance (inter-plate, intra-plate CV, LLOD, and upper limit of detection (ULOD)) were assessed using peptide calibrators in MSD diluent 35 (FIG. 2e). […]

Consider one molecule from patent US12613249B2, “Use of Aβ34 to assess Alzheimer's disease progression” (THE ROYAL INSTITUTION FOR THE ADVANCEMENT OF LEARNING / …, priority 2019, dated 2026).

B1: mab34: mouse monoclonal neo-epitope antibody against the C-terminus of Aβ34; heavy chain variable SEQ ID NO: 2, light chain variable SEQ ID NO: 4 (antibody, V domains shown)
VH: VKLVESGGGLVKPGGSLKLSCAASGFTFSTYAMSWVRQTPEKRLEWVASISSGGNTYYPDSVKGRFTISRDNARHILYLQMSSLRSEDTAMYYCARDSYYFGNSVYYAMDYWGQGTSVTVSS
VL: DVVMTQTPFILSVTIGQPASISCKSSQSLLDSDGKTYLNWLFQRPGQSPKRLIYQVSKVDAGVPDRFSGSGSGTDFTLKISRVEAEDLGIYYCWQGTHFPRTFGGGTKLEIKR
modifications: heavy chain variable region sequence of AB34 antibody; Aritificial sequence; light chain variable region sequence of AB34 antibody
For the molecule B1, the “recognition of G33A modified neo-epitope” value in assay [1] is recorded as “not recognized”. Further, in assay [2], the “affinity of binding to the C-terminus of Aβ34” value is “nanomolar affinity”. The “cross-reactivity against Aβ35, Aβ38, Aβ40, or Aβ42” value in assay [3] is reported as “without any significant cross-reactivity”.
